# Hit rate of the full screen: of about 48,000 compounds, about 120 (0.25%) were called active. Another 4% or so got no clear call; they are omitted. The call rests on the fitted dose curve; in most records, active means well fitted activation curve with a large enough effect; inconclusive means small, poorly fitted or top-dose-only effect, or another doubt; inactive means no such curve, though single readings can be large or run the other way. Some of the results follow.
# Assay: Primary qHTS for Identification of Small Molecule Activators of Huntingtin-Antisense Promoter Activity; further: nearly all actives have a fitted effect of over 55% in size
# Conditions: HEK293 HTT-AS promoter firefly luciferase reporter, 24 h; series mostly up to 57.5 µM; activity change, positive = activation: at the top concentration
# Outline: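 HEK293 luciferase promoter-reporter cells (2,500/well) plated 24 h, then compounds added at up to 57.5 uM final for 24 h at 37 °C. Firefly luminescence by Dual-Glo, normalized to vehicle (0%) and zero RLU (-100%).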
# Potency means the concentration at half of the fitted maximal effect.
Structure (SMILES),"activity change, positive = activation",Potency
O=S(=O)(Nc1ccc(C(F)(F)F)cc1)c1ccc2c(c1)OCCO2,inactive: -32%,–
COCCCn1c(=O)c2sccc2n2c(CCCC(=O)Nc3cccc(C(F)(F)F)c3)nnc12,inactive: -3.85%,–
O=C(NCCCc1nc2ccccc2n1Cc1cccc(Cl)c1)C1CCCCC1,inactive: -26.4%,–
O=C(c1ccc2c(c1)N(Cc1ccc(Cl)cc1)C(=O)c1ccccc1S2=O)N1CCC(Cc2ccccc2)CC1 (stereo not given),inactive: -41.5%,–
COc1cccc(-c2nn3c(=O)cc(CN4CCN(C(=O)/C=C/c5ccccc5)CC4)nc3s2)c1,inactive: -7.82%,–
COc1ccc(NC(=O)Cn2nc(C(F)(F)F)c3c2CCCC3)cc1OC,inactive: -33.1%,–
CCOc1ccccc1NC(=O)C1=C(C)Nc2ncnn2C1c1cccs1 (stereo not given),inactive: -23.6%,–
Cc1cccc(N2CCN(C(=O)c3ccc4c(Cl)c5c(nc4c3)CCCC5)CC2)c1C,inactive: -28.6%,–
COc1cc(NC(=O)c2nc3ccccc3n(C)c2=O)cc(OC)c1OC,inactive: 13.5%,–
CC(C)NC(=O)CN1C(=O)c2cccnc2Sc2ccccc21,inactive: -7.95%,–
Cc1ccc(CCNC(=O)CCS(=O)(=O)c2cc3c(cc2Cl)NC(=O)CO3)cc1,inactive: -6.34%,–
COc1ccc(CNC(=O)C2=CC(c3cccc(OC)c3)=NS(=O)(=O)N2C)cc1,inactive: -12.7%,–
CC(=O)c1cccc(NC(=O)c2cc(C)nc3c2c(C)nn3-c2cccc(Cl)c2C)c1,inactive: -26.5%,–
COC(=O)c1c(-c2ccc(Cl)cc2)noc1N1CCN(c2ccc(F)cc2)CC1,inactive: -11%,–
Cc1ccc(-c2nc(-c3cc4cccc(OCc5ccccc5F)c4oc3=O)no2)cc1,inactive: -3.98%,–
Cc1ccc(NC(=O)Cn2c(=O)n(Cc3ccc(C(=O)NCc4ccc5c(c4)OCO5)cc3)c(=O)c3ccccc32)cc1,inactive: -7.04%,–
CCOc1ccc(CNC(=O)CCS(=O)(=O)c2ccc3c(c2)oc(=O)n3C)cc1,"inactive: 16.7% [at 11.5 µM, percent change from vehicle, -100% = no light]",–
COC(=O)c1ccc(NC(=O)C(=O)NCC(c2cccnc2)N2CCc3ccccc32)cc1 (stereo not given),inactive: -54.9%,–
CCCOc1ccc(C(=O)Nc2ccc3oc(-c4ccc(N(C)C)cc4)nc3c2)cc1,inactive: -0.568%,–
Cc1c(Cl)cccc1NC(=O)Cn1nnc(-c2nc(-c3ccccc3)no2)c1N,inactive: 10.3%,–
Cc1cccc(C)c1NC(=O)CSc1nc2ccccc2c2nc(CCc3c(C)n[nH]c3C)nn12,inactive: 10.2%,–
CCC1=C[C@@H]2CN(C1)Cc1c([nH]c3ccccc13)[C@@](C(=O)OC)(c1cc3c(cc1OC)N(C)[C@H]1[C@@](O)(C(=O)OC)[C@H](OC(C)=O)[C@]4(CC)C=CCN5CC[C@]31[C@@H]54)C2,inactive: -27.5%,–
CCCOc1ccc(OC(=O)c2cn(-c3ccc(OC)cc3)c(=O)c3ccccc23)cc1,inactive: -21%,–

Structure (SMILES),"activity change, positive = activation",Potency
CCn1cc(C(=O)NCCc2ccc(C)cc2)c(=O)c2cc(S(=O)(=O)N3CCC(C)CC3)ccc21,inactive: -12.8%,–
CC(=O)N1CCN(c2ccc(OCc3nn(C)c(C)c3-c3cccc4c(CCCOc5cccc6ccccc56)c(C(=O)O)n(Cc5cccnc5)c34)cc2)CC1,inactive: -15.5%,–
CC1=C(C(=O)OCC2CCCCC2)C(c2c(F)cccc2Cl)CC(=O)N1 (stereo not given),inactive: -30.3%,–
COc1cc(OC)c(NC(=O)Nc2ccccc2OCc2cc(=O)n3cc(C)ccc3n2)cc1Cl,inactive: 10.5%,–
COc1ccc(CCNC(=O)CCc2c(C)nc3nc(C)nn3c2C)cc1OC,inactive: -7.4%,–
CCc1ccc(S(=O)(=O)c2nnn3c2nc(NC2CCCC2)c2sccc23)cc1,inactive: -12%,–
COc1ccc(C)cc1NC(=O)CCS(=O)(=O)c1ccc2c(c1)CC(=O)N2C,inactive: -13.2%,–
COCCNC(=O)c1cc(Sc2ccc(F)cc2F)nc2ccccc12,inactive: -11.1%,–
COc1ccc(-n2ccn(Cc3ccc(C)cc3)c(=O)c2=O)cc1OC,inactive: -16.2%,–
O=C(c1ccc2c(c1)N(Cc1ccc(F)cc1)C(=O)c1ccccc1S2(=O)=O)N1CCC(Cc2ccccc2)CC1,inactive: -3.12%,–
O=C(CSc1ccc2ccccc2n1)Nc1nsc(-c2ccc(Cl)cc2)n1,inactive: 0.947%,–
COc1ccc(NC(=O)CN(C)S(=O)(=O)c2ccc3[nH]c4c(c3c2)CCCC4)cc1Cl,inactive: -34.5%,–
CC(=O)N1c2nc(-c3ccco3)nn2C2(CCCCC2)[C@@H]2CCCC[C@@H]21,inactive: -7.52%,–
COc1ccc(Cn2c(SCc3ccc(C(=O)NCc4ccccc4F)cc3)nc3cccnc32)cc1,inactive: -24.1%,–
Cc1cccc(-n2c(=O)c3c(c4cc(C)ccc4n3C)n(Cc3ccccc3F)c2=O)c1,inactive: -8.44%,–
COc1cc(C(=O)Nc2ccc(OCc3cc(=O)n4cc(C)sc4n3)cc2)cc(OC)c1OC,inactive: -12.1%,–
O=C(NCCc1ccccc1)c1c[nH]c2ccc(S(=O)(=O)Nc3ccccc3F)cc2c1=O,inactive: -29.1%,–
COc1ccc(NC(=O)Nc2nnc(N(C)C3CCCCC3)s2)c(OC)c1,inactive: -5.19%,–
CCOC(=O)c1sc(NC(=O)COc2ccccc2Cl)c(C(=O)OCC)c1C,inactive: 3.01%,–
O=C(Nc1ccc(O)c(-c2nc3ccccc3o2)c1)c1ccco1,inactive: -0.117%,–
Cc1ccccc1NC(=O)CSc1nc2c(oc3ccccc32)c(=O)n1-c1ccccc1F,inactive: -24%,–
CC1CCN(C(=O)c2cc(-c3ccc(Cl)cc3)on2)CC1,–,active: 2000 nM
CCCOc1cccc(C(=O)N(Cc2cc(OC)c(OC)c(OC)c2)C2CCS(=O)(=O)C2)c1 (stereo not given),inactive: 1.42%,–

Structure (SMILES),"activity change, positive = activation",Potency
Cc1ccc2nc(N(CCCN(C)C)C(=O)c3ccc(Br)s3)sc2c1,inactive: -43.6%,–
Cc1ccc(OCCn2nnc3sc4c(c3c2=O)CCC(C(C)(C)C)C4)cc1 (stereo not given),inactive: -14.7%,–
CCn1c(CN2CCC(C)CC2)nc2cc(NC(=O)COc3ccc([N+](=O)[O-])cc3)ccc21,inactive: -29.1%,–
CC(C)c1ccc(NC(=O)c2cccn2-c2nnc(N3CCCCC3)s2)cc1,inactive: -21.1%,–
COc1ccc(C2=Nc3ccc(C)cc3NC(c3ccc(Cl)cc3)=N2)cc1,inactive: 11.2%,–
Cc1ccc(Cl)cc1N1C(=O)N(Cc2ccc(C#N)cc2)c2ccccc2S1(=O)=O,inactive: -33.7%,–
COc1ccc(Cl)cc1NC(=O)CCCn1c(C)c2cnn(-c3ccccc3)c(=O)c2c1C,inactive: -11.4%,–
COc1ccc(CNC(=O)c2cccc(NC(=O)N3CCSc4ncccc43)c2)cc1,inactive: -21.6%,–
COc1ccc(-c2noc(N3CCC(C(=O)Nc4ccc(C)c(F)c4)CC3)n2)cc1OC,inactive: -25%,–
COc1cccc(Cn2c(=O)n(-c3ccc(Br)cc3F)c(=O)c3sc4ccccc4c32)c1,inactive: -14.7%,–
CCOc1cccc2cc(-c3nc4sc5c(c4c(=O)[nH]3)CCC(C)C5)c(=O)oc12 (stereo not given),inactive: -1.93%,–
CCCCNC(=O)CSc1nc2ccccc2nc1Cc1ccc(Cl)cc1,inactive: -4.5%,–
Cc1ccc(NC(=O)CC2Nc3cccc4cccc(c34)NC2=O)cc1 (stereo not given),inactive: -29.1%,–
COc1ccc(NC(=O)CCNS(=O)(=O)c2cccc3nsnc23)cc1OC,inactive: -6.49%,–
COC(=O)c1ccc(Cn2c(SCc3cccc(C)c3)nc3ccncc32)cc1,inactive: 0.208%,–
Cc1cc(C)c(/C=C/c2onc(C)c2S(=O)(=O)N2CCC(C(=O)N3CCN(c4ccccc4)CC3)CC2)c(C)c1,inactive: 6.66%,–
CCOC(=O)c1sc2ncn(CC(=O)Nc3ccc(C)cc3C)c(=O)c2c1C,inactive: -8.85%,–
Cc1ccc(-c2ccc(=O)n(C(C)C(=O)Nc3ccccc3Cl)n2)cc1C (stereo not given),inactive: -20.4%,–
CCn1cc(C(=O)O)c(=O)c2cc(F)c(N3CCN(C)CC3)cc21,inactive,–
CCCCNC(=O)C(CC)Sc1nnc(-c2ccc(OC)c(OC)c2)c(-c2ccc(OC)c(OC)c2)n1 (stereo not given),inactive: 2.89%,–
COc1cccc(NC(=O)c2cn(C3CCCCC3)c(=O)c3c2c2ccccc2n3C)c1,inactive: -15.6%,–
CC1CCc2nc3ncn(CC(=O)Nc4cccc(C#N)c4)c(=O)c3cc2C1 (stereo not given),inactive: 16.5%,–
COc1ccc(S(=O)(=O)N(CC(=O)N2CCC(C)CC2)c2ccc(C)cc2)cc1,inactive: -26.7%,–

Structure (SMILES),"activity change, positive = activation",Potency
COc1ccccc1-c1nn(CCC(=O)Nc2cccc(C(C)=O)c2)c2nc(C)cc(C)c12,inactive: -33.6%,–
COc1ccc(C(=O)NCC(c2cccs2)S(=O)(=O)c2ccc(C)cc2)cc1 (stereo not given),inactive: -25.8%,–
COc1cc(Cl)c(C)cc1NC(=O)CN1c2ccccc2S(=O)(=O)c2ccccc21,inactive: -34.2%,–
Cc1cc(N2CCC(C)CC2)nc2ccc(NC(=O)CCC(=O)N3CCN(c4cccc(C(F)(F)F)c4)CC3)cc12,inactive: -8.52%,–
CCc1ccccc1Nc1nn2c(=O)c3ccc(C(=O)Nc4cc(C)cc(C)c4)cc3nc2s1,inactive: -14.1%,–
CCOC(=O)c1cccc(NC(=O)CCCn2c(C)c3cnn(-c4ccccc4)c(=O)c3c2C)c1,inactive: -20.1%,–
COc1cc(C2CC(=O)Nc3c2c(=O)n(C)c(=O)n3C)cc(OC)c1OC (stereo not given),inactive: 4.09%,–
Cc1cccc(-n2ncc(C(=O)N3CCC(C)CC3)c2C2CCN(C(=O)OC(C)(C)C)CC2)c1,inactive: 3.48%,–
CCCCn1c(CNC(=O)c2ccc(OC)cc2)nnc1SCC(=O)Nc1ccccc1,inactive: -29.7%,–
Cc1ccc(CNC(=O)CCC(=O)N2CC(C)Sc3ccccc32)cc1 (stereo not given),inactive: -0.92%,–
COc1ccc(-c2cc(C(C)=O)c(C)n2CCC(=O)NCc2ccc(F)cc2)cc1,inactive: -12.3%,–
Cc1ccc(NC(=O)c2cc3c(=O)[nH]c4ccccc4c3n2C)cc1F,inactive: -13.3%,–
COc1ccc(CCNC(=O)NCc2noc3ccc(C)cc23)c(OC)c1,inactive: -26.4%,–
CCN(CC)c1cc2c(cc1F)c(=O)c(S(=O)(=O)c1ccccc1)cn2Cc1ccccc1,inactive: -22.8%,–
CC[C@]12CCCN3CCc4c(n(c5ccccc45)C(=O)C1)[C@@H]32,inactive: -22.7%,–
CCOC(=O)c1c(S(=O)(=O)NCC(=O)N2CCN(c3ccccc3OC)CC2)c(C)n(C)c1C,inactive: -3.17%,–
CC(=O)c1cccc(NS(=O)(=O)c2c(C)nc3sc(C)cn3c2=O)c1,inactive: -30.1%,–
CCOc1ccc(S(=O)(=O)N2CCN(c3ccccc3)CC2)cc1C(N)=O,inactive: -6.59%,–
CC(C)N(C(=O)Cn1cc(S(=O)(=O)Cc2ccc(C(F)(F)F)cc2)c2ccccc21)C(C)C,inactive: -24.2%,–
Cc1ccc(Nc2c(-c3ccccc3O)nc3ccc(Br)cn23)cc1,inactive: 2.34%,–
COc1ccc2c(Sc3ccc(Cl)cc3)c(C(=O)NCCCN3CCCCC3)[nH]c2c1,inactive: -8.54%,–

# Reference: PubChem BioAssay AID1508624 (National Center for Advancing Translational Sciences (NCATS), 2021)
